Reference: the supplement of paper PMC10600219
Structures can show the parent of a compound that is named as a salt. The full ranking holds about 2,800 compounds; the median of “cell viability relative to vehicle” is about 1.1, and the lowest 2% start at about 0.19. The list shows a part of the results.

These molecules were tested on NCI-H2228 parental (assay: cell viability relative to vehicle (fraction of vehicle); NCI-H2228 is an ALK-positive lung cancer line and DTP means drug-tolerant persister; higher = less growth inhibition). Conditions: 100 nM; treatment time 6 days.
Summary of the method: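 The 3114-agent TargetMol anti-cancer compound library was tested at 100 nM for 6 days on parental NCI-H2228 cells and on persister cells derived with 1000 nM of a targeted drug for 13 days. ATP readout by the CellTiter-Glo 3D Cell Viability Assay gave cell viability relative to DMSO vehicle-treated cells.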

Going from `FC(F)(F)c1ccccc1-c1nc(NCc2cccs2)c2ccccc2n1` to `CC(C)n1cnc2c(NCCc3ccc(O)cc3)nc(-c3csc4ccccc34)nc21` [StemRegenin 1], the cell viability rises from 1.04 to 1.1.

First: CC(CN1c2ccccc2Sc2ccccc21)N(C)C (configuration not stated) [Promethazine hydrochloride]
Second: Cc1ccccc1C(=O)Nc1ccc(C(=O)N2CCCC(N(C)C)c3ccccc32)cc1 (configuration not stated) [Mozavaptan]
The cell viability of the first is lower: 0.834 for the first, 1.1 for the second.

First: CC(CN1c2ccccc2Sc2ccccc21)N(C)C (configuration not stated) [Promethazine]
Second: CC(C)Cn1cnc2c(N)nc3ccccc3c21 [Imiquimod]
The cell viability of the first is higher: 1.11 for the first, 1.05 for the second.

First: C[C@H]1CNC(=O)c2cnn3ccc(nc23)N[C@H](C)c2cc(F)ccc2O1
Second: Cn1nnc(-c2ccc(-c3ccc(N4C[C@H](CO)OC4=O)cc3F)cn2)n1 [Torezolid]
The cell viability of the first is lower: 0.544 for the first, 0.927 for the second.

`Cc1ccc(NC(=O)Nc2cc(C(F)(F)F)ccc2F)cc1Nc1ccc2c(c1)NC(=O)/C2=C\c1ccc[nH]1` and `O=C1Nc2ccc(I)cc2/C1=C/c1cc(Br)c(O)c(Br)c1` are the same in cell viability: 1.13 for the first, 1.13 for the second.

First: CNC(=O)c1ccccc1Sc1ccc2c(/C=C/c3ccccn3)n[nH]c2c1 [Axitinib]
Second: O=C1c2ccccc2-c2n[nH]c3cccc1c23 [Pyrazolanthrone]
The cell viability of the first is higher: 1.28 for the first, 1.16 for the second.

Going from `CN(C)[C@@H]1CCc2[nH]c3ccc(NC(=O)c4ccc(F)cc4)cc3c2C1` to `Oc1nc(-c2ccc(C(F)(F)F)cc2)nc2c1CSCC2`, the cell viability falls from 1.11 to 1.02.

Compared with `COc1cc(C[C@H]2C(=O)OC[C@@H]2Cc2ccc(OC)c(OC)c2)ccc1O` [Arctigenin], `COc1ccc(-c2coc3cc(O[C@@H]4O[C@H](CO)[C@@H](O)[C@H](O)[C@H]4O)ccc3c2=O)cc1O` [Calycosin-7-O-beta-D-glucoside] is lower in cell viability: 1.1 for the first, 1.06 for the second.

First: NS(=O)(=O)c1cc2c(cc1C(F)(F)F)NC(Cc1ccccc1)NS2(=O)=O (configuration not stated) [Bendroflumethiazide]
Second: CCOC(=O)c1c(C)[nH]c(C=C2C(=O)Nc3ccccc32)c1C [VEGFR2 Kinase Inhibitor I]
The cell viability of the first is lower: 1.01 for the first, 1.04 for the second.

Going from `C[C@@]12CC[C@@H]3[C@@](CC[C@H]4[C@@]3(C)CCC[C@@]4(C)C(=O)O)(CC1=O)C2` [Isosteviol] to `CC(=O)O[C@@H]1CC[C@@]2(C)[C@@H](CC[C@]3(C)[C@@H]2C(=O)C=C2[C@@H]4[C@@H](C)[C@H](C)CC[C@]4(C)CC[C@]23C)[C@@]1(C)C(=O)O`, the cell viability falls from 1.07 to 1.04.

Compared with `CO[C@H]1CC[C@H](N2C(=O)CNc3ncc(-c4ccc(C(C)(C)O)nc4)nc32)CC1`, `N#Cc1ccc(COc2ccc(-c3cccc4nc(NC(=O)C5CC5)nn34)cc2)cn1` [GLPG0634 analogue] is lower in cell viability: 1.07 for the first, 0.961 for the second.

Going from `O=C(c1ccc(OCCN2CCCCC2)cc1)c1c(-c2ccc(O)cc2)sc2cc(O)ccc12` [Raloxifene hydrochloride] to `CCNC(=O)c1cc2c(-c3cc(OCCN4CCCC4)c(Cl)cc3Cl)nc(N)nc2s1`, the cell viability falls from 1.21 to 1.06.

First: CNC(=O)c1ccc(N2C(=S)N(c3cnc(C#N)c(C(F)(F)F)c3)C(=O)C23CCC3)cc1F [Apalutamide]
Second: CCNc1nc(Nc2cc(F)c(C(=O)N3CCOCC3)cc2OC)ncc1C(F)(F)F
The cell viability of the first is lower: 0.898 for the first, 1.06 for the second.

First: Nc1cccc(-c2nc(N3CCOCC3)c3oc4ncccc4c3n2)c1 [PIK-inhibitors]
Second: Cc1cccc(-c2[nH]ncc2-c2ccc3ncccc3n2)n1
The cell viability of the first is higher: 1.11 for the first, 0.992 for the second.

First: CCCCCCOc1cc(C)c(O)c(C)c1C
Second: CCCCN1CCC(CNC(=O)c2c3n(c4ccccc24)CCCO3)CC1 [Piboserod]
The cell viability of the first is lower: 1.11 for the first, 1.22 for the second.

Compared with `C=C(C)[C@@H]1CC[C@]2(C)[C@H](CC=C3[C@@H]4[C@@H](C)[C@H](C)CC[C@]4(C)CC[C@]32C)[C@@]1(C)CCC(=O)O` [Roburic acid], `C=C(C)[C@@H]1CC[C@]2(C)CC[C@]3(C)[C@H](CC[C@@H]4[C@@]5(C)CC[C@H](O)C(C)(C)[C@@H]5CC[C@]43C)[C@@H]12` [Lupeol] is higher in cell viability: 1.08 for the first, 1.15 for the second.

Going from `CC1(C)O[C@@H]2[C@@H](CO[C@@]3(COS(N)(=O)=O)OC(C)(C)O[C@@H]23)O1` [Topiramate] to `CCCC(=O)O[C@]1(C(=O)CO)CC[C@H]2[C@@H]3CCC4=CC(=O)CC[C@]4(C)[C@H]3[C@@H](O)C[C@@]21C` [Hydrocortisone butyrate], the cell viability falls from 1.05 to 0.825.

Going from `CCNC(=O)[C@@H]1CCCN1C(=O)[C@H](CCCNC(=N)N)NC(=O)[C@H](CC(C)C)NC(=O)[C@@H](CC(C)C)NC(=O)[C@H](Cc1ccc(O)cc1)NC(=O)[C@H](CO)NC(=O)[C@H](Cc1c[nH]c2ccccc12)NC(=O)[C@H](Cc1c[nH]cn1)NC(=O)[C@@H]1CCC(=O)N1` [Leuprolide Acetate] to `CN[C@H](CNC(=O)N1CCC[C@@H]([C@@H](OCCNC(=O)OC)c2cccc(Cl)c2)C1)C[C@H]1CCCOC1`, the cell viability rises from 0.864 to 1.04.

First: COc1ccc2c3c1O[C@H]1C[C@@H](O)C=C[C@@]31CCN(C)C2 [Galanthamine HBr]
Second: C=C1CCC[C@]2(C)C[C@@H]3OC(=O)C(C)=C3C[C@@H]12 [Atractylenolide II]
The cell viability of the first is higher: 1.12 for the first, 0.925 for the second.

Compared with `Cc1nnc(SCC2=C(C(=O)O)N3C(=O)[C@@H](NC(=O)Cn4cnnn4)[C@H]3SC2)s1` [Cefazolin sodium salt], `O=C(NCCCNc1nc(Nc2cccc(NC(=O)N3CCCC3)c2)ncc1I)c1cccs1` is lower in cell viability: 1.27 for the first, 1.07 for the second.

Compared with `Cc1cc(C#N)cc(C)c1Oc1nc(Nc2ccc(C#N)cc2)nc(N)c1Br` [Etravirine], `O=C(O)c1cc(NCc2cc(O)ccc2O)ccc1O` [lavendustin C] is lower in cell viability: 1.25 for the first, 1.07 for the second.

First: COC(=O)c1ccc(O)c(O)c1 [Methyl protocatechuate]
Second: O=C(NNc1ccccc1)c1ccncc1 [PluriSln 1]
The cell viability of the first is lower: 0.886 for the first, 1.06 for the second.

Going from `O=c1[nH]c(=O)n([C@H]2C[C@H](O)[C@@H](CO)O2)cc1C(F)(F)F` [Trifluridine] to `O=C1OC(=O)[C@H]2[C@@H]1[C@@H]1CC[C@H]2O1` [Norcantharidin], the cell viability rises from 0.889 to 0.995.

Molecule `c1cc(CN2CCCNCCNCCCNCC2)ccc1CN1CCCNCCNCCCNCC1` [Plerixafor] has a cell viability of 0.972.
